# Experimental data as given in publication PMC4336329 (PLoS ONE, 2015).
# Screen size: about 310,000 compounds; about 14,000 (4.5%) showed an effect of 50% or more. Effects have a minus sign here. The list shows a part of the results. Where a SMILES comes first, the peptide text is derived from it. The star is where a group is joined. Cbz = O=C(OCc1ccccc1)*
# Biological target: human ether-à-go-go-related gene (hERG) potassium channel (human, UniProt Q12809)
# Test: primary screen, population patch clamp on CHO cells stably expressing hERG
# 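Note: peak tail current of the secondary pulse compared with the same well before compound.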
# Sequence of human ether-à-go-go-related gene (hERG) potassium channel (Q12809 whole entry, looked up): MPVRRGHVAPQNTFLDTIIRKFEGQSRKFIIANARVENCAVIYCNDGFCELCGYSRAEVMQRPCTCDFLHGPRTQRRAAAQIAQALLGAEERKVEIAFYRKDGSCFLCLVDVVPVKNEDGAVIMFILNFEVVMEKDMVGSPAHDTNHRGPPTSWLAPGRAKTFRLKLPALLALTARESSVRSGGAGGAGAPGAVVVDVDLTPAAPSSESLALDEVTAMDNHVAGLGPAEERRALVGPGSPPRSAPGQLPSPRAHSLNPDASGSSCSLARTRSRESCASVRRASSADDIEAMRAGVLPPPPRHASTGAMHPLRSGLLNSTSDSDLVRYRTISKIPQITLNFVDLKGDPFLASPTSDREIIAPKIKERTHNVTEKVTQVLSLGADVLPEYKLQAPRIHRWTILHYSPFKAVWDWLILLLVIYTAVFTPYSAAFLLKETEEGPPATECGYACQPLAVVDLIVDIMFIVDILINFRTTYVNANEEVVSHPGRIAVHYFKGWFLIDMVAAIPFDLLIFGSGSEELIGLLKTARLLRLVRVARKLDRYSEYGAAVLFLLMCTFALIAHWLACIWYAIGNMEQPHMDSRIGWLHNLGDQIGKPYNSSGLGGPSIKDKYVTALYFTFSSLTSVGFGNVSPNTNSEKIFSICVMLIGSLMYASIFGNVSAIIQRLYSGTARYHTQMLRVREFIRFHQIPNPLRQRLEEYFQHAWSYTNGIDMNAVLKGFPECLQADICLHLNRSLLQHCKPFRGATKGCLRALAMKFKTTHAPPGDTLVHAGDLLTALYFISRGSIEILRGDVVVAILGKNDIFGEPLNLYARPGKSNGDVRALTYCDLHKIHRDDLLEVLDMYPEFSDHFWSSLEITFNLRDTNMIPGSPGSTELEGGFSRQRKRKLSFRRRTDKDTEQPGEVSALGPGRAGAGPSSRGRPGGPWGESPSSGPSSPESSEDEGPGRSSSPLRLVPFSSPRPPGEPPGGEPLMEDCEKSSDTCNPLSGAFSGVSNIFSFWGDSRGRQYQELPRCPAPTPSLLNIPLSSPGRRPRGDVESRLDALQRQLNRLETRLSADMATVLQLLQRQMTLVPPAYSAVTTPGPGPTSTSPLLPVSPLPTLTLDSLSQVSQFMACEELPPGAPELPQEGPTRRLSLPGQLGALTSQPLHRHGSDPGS
row,SMILES,"hERG current change (%, negative = inhibition) at 10uM [%]"
1,O=C(Nc1ccccc1)N1CC2CC(C1)c1cccc(=O)n1C2 (stereo not shown),9.11
2,O=C(N/N=C/C(Cl)=C/c1ccccc1)c1ccccn1,-36.2
3,CCCCON1C(=O)c2cccc3cccc(c23)C1=O,-4.38
4,CCOCCCNC(=O)CN1C(=O)NC(Cc2c[nH]c3ccccc23)C1=O (stereo not shown),-23.7
5,COc1ccc(C2CC(C)=C(C#N)S(=O)(=O)C2C#N)cc1 (stereo not shown),9.95
6,COc1ccc(Cl)cc1NC(=O)Nc1ccccc1SC,5.83
7,CC(=C/c1ccco1)/C=N/NC(=O)CSc1nnc(SCc2ccc(C)cc2)s1,-3.37
8,Cc1ccc(CN2CCSc3ccc(C(=O)NC4CCCC4)cc32)cc1,-22.7
9,CC(=O)NS(=O)(=O)c1cccnc1Nc1ccc(Cl)cc1,17.1
10,O=C(N/N=C/c1cccc2ccccc12)c1cccnc1,1.76
11,O=C(Nc1nccs1)c1sc2cc(Cl)ccc2c1Cl,4.37
12,COc1ccc(NC(=O)CCn2ccnc2)c(OC)c1,23.2
13,Cc1cc(-c2nnc(CCC(=O)NC(C)(C)C34CC5CC(CC(C5)C3)C4)o2)no1,-2.16
14,COc1cc(=O)[nH]c(SC(C)C(=O)Nc2cc(C)on2)n1 (stereo not shown),14.4
15,O=C(c1cc(-c2ccncc2)nc2ccc(Br)cc12)N1CCN(Cc2ccc3c(c2)OCO3)CC1,-56.5
16,CC(C)CCn1c(CN2CCN(Cc3ccccc3)CC2)nc2c1c(=O)[nH]c(=O)n2C,-17.6
17,COc1ccc(NC(=O)COCC(=O)Nc2ccc(C)cc2)cc1,-8.56
18,CC(C)NS(=O)(=O)c1ccc(NC(=S)NC(=O)c2ccc(-c3ccccc3)cc2)cc1,-6
19,COCCCNC(=S)Nc1ccc(OC(F)F)cc1C,7.74
20,Cn1ncc(C#N)c1NC(=O)c1nn2cccnc2c1Cl,10.5
21,COCCN(C(=O)c1snc(C(N)=O)c1N)C(C(=O)NC1CCCCC1)c1ccc(OC)c(OC)c1 (stereo not shown),9.67
22,CCCS(=O)(=O)c1c(S(=O)(=O)CCC)c2ccc(C(N)=O)cn2c1C(=O)c1ccc(F)cc1,15.2

row,SMILES,"hERG current change (%, negative = inhibition) at 10uM [%]"
1,Cl.O=C(O)C1=CCCNC1,-54.4
2,O=C(N/N=C/c1ccncc1)C1CC1C(=O)N/N=C/c1ccncc1 (stereo not shown),21
3,C=CCn1c(O)c(C(CC)=NCCC2=CCCCC2)c(=O)[nH]c1=O,-13.6
4,COc1ccc(-c2cc(-c3ccccc3)c(C#N)c(SCC(=O)O)n2)cc1,16.7
5,Cc1ccc(F)cc1NC(=O)c1sc2ncn(CC(=O)N3CCN(c4ccccn4)CC3)c(=O)c2c1C,-5.06
6,Cc1ccc(C(=O)OCC(=O)NNC(=O)c2ccccc2)c(O)c1,-30.6
7,CC(C)C(=O)Nc1ccc(-c2nc3ccccc3c(=O)o2)cc1,26.9
8,CN(CC(=O)Nc1ccccc1C(F)(F)F)C(=O)CSCc1ccc(Cl)c(Cl)c1,18.5
9,CCN(CC)c1ccc(NC(=O)/C=C/c2cc(Br)ccc2OC)cc1,4.29
10,CCN(CC)c1ccc2c(Cl)cc(=O)oc2c1,-31.2
11,CCOC(=O)c1cnc(SCC(=O)Nc2ccccc2C(=O)OC)nc1N,-13.1
12,CCCCC(CC)CNC(=O)CCS(=O)(=O)c1cccc2nonc12 (stereo not shown),-6.68
13,Cc1cc(C)c(S(=O)(=O)c2c(C)cccc2C)c(Cl)n1,0.573
14,Cc1ccccc1OCC(=O)NC(=S)Nc1ccc(Br)c(C)n1,18
15,CCN(CC)C(=O)C12CC3CC(CC(Br)(C3)C1)C2,7.03
16,COc1cc(-c2nnc(COC(=O)CSCC(=O)Nc3cc(C)on3)o2)cc(OC)c1OC,1.78
17,CN(C)C(=O)c1ccc(NC(=O)CSc2nnc(-c3cccs3)n2N)cc1,-2.53
18,CCOc1ccccc1C(=O)Nc1cccc2cccnc12,10.6
19,CCC1S/C(=N/N=C/c2ccco2)N(Cc2ccccc2C)C1=O (stereo not shown),0.654
20,COc1cccc2c1Oc1ncccc1N(C(=O)CCC(=O)NCc1ccc(C)cc1)C2,-34.4
21,COc1ccc(-n2c3c(cc(C(=O)N4CCN(CCO)CC4)c2=O)C(=O)CC(C)(C)C3)cc1,-3.89
22,CSc1ccccc1NC(=O)c1ccc(N2CC3CC(C2)c2cccc(=O)n2C3)c(NC(=O)c2cccnc2)c1 (stereo not shown),-30.6

row,SMILES,"hERG current change (%, negative = inhibition) at 10uM [%]"
1,CC(C)(/C=N/NC(=O)CSCc1ccc(Cl)cc1)CCC#N,-15.5
2,O=C(CN(CCO)c1ccccc1)Nc1cccc(S(=O)(=O)N2CCCC2)c1,6.01
3,O=C(O)/C=C/c1ccccc1[N+](=O)[O-],9.87
4,COc1ccccc1OC(C)C(=O)O (stereo not shown),3.54
5,FC(F)(F)c1cccc(Cc2noc(CN3CCC(c4ccncc4)CC3)n2)c1,-66.2
6,CC(C)=CCN1CCN(Cc2ccc3nsnc3c2)CC1CCO (stereo not shown),-19.4
7,COC(=O)c1cc(Br)c(=O)n(-c2nccs2)c1,-5.98
8,Cc1ccc(-c2nc3ncccc3o2)cc1NC(=O)c1ccc([N+](=O)[O-])o1,-35.5
9,O=C(CSc1nnc2ncccn12)Nc1cccc2ccccc12,5.09
10,COC(=O)c1cc(-c2cccs2)[nH]n1,17
11,CCOc1cc(S(=O)(=O)NC2CC(C)(C)NC(C)(C)C2)ccc1F,-9.91
12,O=C(Nc1cc(C(F)(F)F)ccc1-n1cncn1)c1ccc(Cl)cc1,-3.01
13,CCOc1ccc(/C=C/C(=O)Oc2ccccc2)cc1,23.1
14,Cc1ccc(N(CCCCN2C(=O)c3ccccc3C2=O)C(=O)c2cccc([N+](=O)[O-])c2)cc1,-59.5
15,COc1ccc(C(NC(=O)c2ccc(-c3ccccc3)cc2)c2ccccc2)cc1 (stereo not shown),7.97
16,COc1cc(NC(=O)CC(C)S(=O)(=O)c2ccc3c(c2)NC(=O)CO3)cc(OC)c1OC (stereo not shown),7.63
17,CCNS(=O)(=O)c1ccc(CCC(=O)NCc2cccnc2)cc1,16.8
18,CC(C)(C)C(=O)N1CCN(c2ccc(NC(=O)c3ccc([N+](=O)[O-])o3)cc2)CC1,10.2
19,CC(CNC(=O)c1ccco1)NC(=O)c1ccco1 (stereo not shown),14.6
20,CC(NC(=O)c1ccc(NC(=O)CC2SC(N3CCCC3)=NC2=O)cc1)c1ccccc1 (stereo not shown),12.6
21,CCOC(=O)c1c(C)sc2c1N(C(=O)CCl)c1cc(Cl)ccc1S2,-3.3
22,Cc1nn2c(N3CCN(C4CCCC4)CC3)cc(C(C)(C)C)nc2c1-c1ccccc1,-3.53

row,SMILES,"hERG current change (%, negative = inhibition) at 10uM [%]"
1,CC1CCCC(C)N1C(=O)COC(=O)CCC1CCCC1 (stereo not shown),5.68
2,N=C1C(=O)OCC1c1ccccc1NC(=O)c1ccc(F)cc1 (stereo not shown),-1.16
3,O=C1C(=O)N(CC2COc3ccccc3O2)c2ccccc21 (stereo not shown),15.8
4,CC(C)CN(C(=O)COC(=O)c1ccccc1NCc1ccco1)c1c(N)n(Cc2ccccc2)c(=O)[nH]c1=O,-14
5,COCC(C)n1c(C)cc(C(=O)CN2C(=O)NC(Cc3c[nH]c4ccccc34)C2=O)c1C (stereo not shown),6.69
6,O=C(NCCc1cnc[nH]1)c1ccc(-c2ccccc2)cc1,-13
7,COc1ccccc1NC(=O)CSc1nnc(-c2ccco2)o1,-0.698
8,COc1ccccc1N1CCN(S(=O)(=O)c2ccccc2)CC1,-10.1
9,CCSc1nnc(-c2ccccc2N)c(=O)[nH]1,17.2
10,COc1ccc(NC(=S)N2CCN(C(=O)c3ccccc3)CC2)cc1,-11.6
11,Cc1cccc(OCC(=O)Nc2ccccc2N2CCCCC2)c1,2.17
12,CC1(C)CC(=O)C(C(=O)CCCCC(=O)C2C(=O)CC(C)(C)CC2=O)C(=O)C1,-0.168
13,CCc1ccccc1NC(=O)CCC(=O)OCC(=O)c1ccc(-c2ccccc2)cc1,0.642
14,Cc1ccc(Cl)cc1NC(=O)C1CC(=O)Nc2ncnn21 (stereo not shown),12.9
15,COc1ccc(C(C)=O)cc1COC(=O)CNC(=O)c1ccccc1F,-2.02
16,COc1ccc(N2CCN(C(=O)CNC(=O)Cn3cnc4sc(C)c(C)c4c3=O)CC2)cc1,-3.61
17,CCN=C(NCC)SC1CC(=O)N(c2cccc(OC)c2)C1=O (stereo not shown),8.29
18,Cc1cccc(-n2nc3c(c2NC(=O)C(C)C)CSC3)c1,-32.5
19,COc1ccc(CNC(=O)C2(CC3CC(c4ccccc4)=NO3)CCN(C(=O)CCCCCBr)CC2)cc1 (stereo not shown),-76.9
20,C=CCN(CC=C)C(=S)NC(=O)c1ccc(-c2ccccc2)cc1,6.2
21,CCC(C)C(NC(=O)C(C)NC(=O)CNC(=O)CNC(=O)OCc1ccccc1)C(=O)OC (stereo not shown) (Cbz-GGAI-OMe; configuration not given here),16.9
22,Cc1ccc(NC(=O)CCNS(=O)(=O)c2ccc(Br)cc2)cc1S(=O)(=O)N1CCOCC1,-19.4
